# From ChEMBL document CHEMBL4888484, “Replenishing the malaria drug discovery pipeline: Screening and hit evaluation of the MMV Hit Generation Library 1 (HGL1) against asexual blood stage Plasmodium falciparum ,using a nano luciferase reporter read-out” (2022)
# Screen size: about 150,000 compounds; about 540 (0.36%) showed an effect of 50% or more. Some of the results follow.
# Test system: Plasmodium falciparum
# Experiment: Primary screen in NF54 nanoGlo assay, in single point, at 2uM, 72h; a lower Z score goes with more inhibition
# Assay type: functional, Erythrocyte
# Conditions: timepoint 72 hour
SMILES,% Inhibition [%],Z score
CC1CCN2C(=O)N(c3ccc4c(c3)C(=O)NC4=O)C(=O)C2C1 (centres undefined),-5,0.7
Cc1cc(C)n(CC(=O)Nc2cn(C)nn2)n1,-7,0.65
O=C(C[C@H](c1ccc(OCc2ccccc2)cc1)c1c[nH]c2ccccc12)NCc1ccccc1,2,-0.21
CCn1nccc1NC(=O)Cn1cc(-c2cc(OC)nc(N)n2)cn1,-14,2.39
CC(C)CC1(NC(=O)N(C)[C@@H](CN(C)C)c2ccccc2)CC1,5,-0.61
C=CCNC(=O)N1CCCc2cc(OC)ccc2C1,-9,1.68
C[C@@H](CCc1nc(C2CC2)n[nH]1)N1CCN(C)CC1,0,0.05
CC(C)(NCc1cnns1)c1cccc(Cl)c1,-7,1
CCn1ncc(CNC[C@H]2CCCCN(Cc3ccccc3)C2)n1,-5,0.77
COc1ccc(C2=NNC(=O)c3ccccc3C2)cc1OC,-9,1.66
CC(C)(C)c1cc(C[C@H]2CNCC[C@H]2CC(=O)N2CCN(Cc3ccccc3)CC2)no1,31,-3.53
CC1(C)C[C@]1(C(=O)N[C@H]1C[C@@H](C(=O)O)C1)c1ccccc1,8,-1.56
CC(C)N(CC1CC2C=CC1C2)S(=O)(=O)c1cnn(C)c1 (centres undefined),-6,0.92
O=C(NC[C@H]1CCCN(Cc2ccc3nonc3c2)C1)c1ncn[nH]1,-10,1.27
CN(C[C@H]1CC(=O)N(C(C)(C)C)C1)S(=O)(=O)Cc1cccc(Cl)c1,9,-1.7
Cc1nc(C(=O)N(C)C)ccc1C(=O)OCCc1ccccc1,-7,0.9
Cc1nc(NC[C@H]2CN(C)CCN2C)ccc1Cl,-2,0.35
CC[C@H]1COCCN1Cc1c[nH]nc1-c1cc(C)ccc1C,-12,1.86
CCC(CC)(CNC1CCCC1)C(=O)O,-1,0.16
O=C1NCc2ccc(NCC(=O)N(C3CCCCC3)C3CCCCC3)cc21,-16,2.58
CC1(C)Cc2ccccc2N1Cc1cn(C[C@H]2CCOC2)nn1,-4,0.47

SMILES,% Inhibition [%],Z score
O=C(c1cccc(C(F)(F)F)c1)N1C[C@@H](CO)[C@H](c2ccccn2)C1,-1,0.18
O=C(N/C(=C/c1ccccc1)C(=O)N1CCCCCC1)c1ccc(Cl)cc1Cl,-14,1.84
CN1CCC(NC(=O)[C@H]2C[C@@H]2c2ccccc2)CC1=O (some centres undefined),-2,0.38
Cc1nn(C)c(-n2cccn2)c1C(=O)N1CCN(c2ccccc2F)CC1,27,-3.04
COc1cccc(N2CCN3c4ccccc4CC(C(=O)NC4CCCCC4)C3C2)c1 (centres undefined),0,-0.03
O=C(Nc1ccc(N2CCCC2)c2ncccc12)c1cnccn1,1,-0.29
CC(C)Cc1ncc(CNC(=O)N(C)CC2CCCCC2O)s1 (centres undefined),9,-1.07
CN(Cc1cccnc1)Cc1nc(C2(O)CCN(CC3CCCCC3)CC2)cs1,-1,0.15
CCn1nc(C)c2c1c(=O)n(CCc1ccccc1)c(=O)n2Cc1c(F)cccc1Cl,-1,0.05
COc1cccc2c1[C@H](C(=O)NCc1cn(C)nc1OC)CC2,-1,0.07
Cc1csc(COc2ccc3c(c2)CCC3=O)n1,6,-0.76
NC(=O)[C@H]1CCN(C(=O)c2ccc(Oc3ccc(F)c(F)c3)cc2)C1,3,-0.29
O=C1[C@H]2[C@@H]3CCCN3[C@@]3(C(=O)Nc4ccc(Cl)cc43)[C@H]2C(=O)N1CC1CCCO1 (some centres undefined),-11,1.59
CN(CCCN=C(N)N1CCOCC1)c1ccccc1F,-6,1.03
C[C@@H](c1ccccc1)N1C(=O)C(=O)N(CC=Cc2ccccc2)C1=O,-15,2.35
O=C([C@H]1CC(=O)N(C2CCCC2)C1)N1CCN(c2ccccc2)CC1,-14,2.02
O=S(=O)(Cc1cccc(F)c1)N1Cc2cncnc2C1,-13,2.31
CCC(CC)S(=O)(=O)NC(=O)C1CC1C (centres undefined),-15,1.9
Cc1cccc(C(=O)N(Cc2csc(COc3cccc4ccccc34)n2)CC(C)C)c1,-10,1.96
CCC1c2ccsc2CCN1CC(=O)NCCNC(=O)CN1CCc2sccc2C1CC (centres undefined),9,-1.1
CC(=O)c1cccc(C(=O)N2CCC3(CCC(=O)N3)CC2)c1,-9,1.1
